The list shows a part of the results. Single values are uncertain, as repeats are few or missing.
Key:
IMR-32 [1] = test: drug sensitivity score (DSS), single drug with vehicle (DSS (score)); higher = more cytotoxic; extreme values may be limits of the assay; settings: 72 h; co-treatment: vehicle (DMSO)
SK-N-AS [2] = test: as above; settings: 72 h; co-treatment: vehicle (DMSO)
SK-N-AS [3] = test: drug sensitivity score (DSS) in combination with SL-176 (DSS (score)); higher = more cytotoxic; extreme values may be limits of the assay; settings: 72 h; co-treatment: SL-176 11.2 uM (IC25 in IMR-32)
IMR-32 [4] = test: as above; settings: 72 h; co-treatment: SL-176 11.2 uM (IC25 in IMR-32)
SK-N-AS [5] = test: drug sensitivity score (DSS) in combination with GSK2830371 (DSS (score)); neuroblastoma lines; SL-176 and GSK2830371 are WIP1 inhibitors; higher = more cytotoxic; extreme values may be limits of the assay; settings: 72 h; co-treatment: GSK2830371 at IC25 in IMR-32
IMR-32 [6] = test: as above; settings: 72 h; co-treatment: GSK2830371 at IC25 in IMR-32
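For drug sensitivity score (DSS) in combination with GSK2830371 in this document: neuroblastoma cells in 384-well plates, each compound at five concentrations, luminescence read-out, DSS derived from fitted concentration-response curve combining IC50 with minimum and maximum inhibition.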
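For drug sensitivity score (DSS) in combination with SL-176 in this document: cells in 384-well plates, luminescence read-out, each screening drug at five concentrations, DSS derived from the fitted concentration-response curve combining IC50 with minimum and maximum inhibition.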
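For drug sensitivity score (DSS), single drug with vehicle in this document: 384-well screen with five concentrations per compound and a luminescence read-out, DSS computed from the fitted dose-response curve combining IC50 with minimum and maximum inhibition.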

`CC(C)C[C@H](NC(=O)[C@H](Cc1ccccc1)NC(=O)c1cnccn1)B(O)O` [Bortezomib] gave a drug sensitivity score (IMR-32 [1]) of 35.2, a drug sensitivity score (SK-N-AS [2]) of 28.3 and a drug sensitivity score (SK-N-AS [3]) of 27.5. The drug sensitivity score (IMR-32 [4]) was 30.4, the drug sensitivity score (SK-N-AS [5]) was 28.6 and the drug sensitivity score (IMR-32 [6]) was 31.2.

With `Nc1ccccc1NC(=O)c1ccc(CNC(=O)OCc2cccnc2)cc1` [Entinostat] the drug sensitivity score (IMR-32 [1]) was 15.4, the drug sensitivity score (SK-N-AS [2]) was 9.4 and the drug sensitivity score (SK-N-AS [3]) was 8.5. The drug sensitivity score (IMR-32 [4]) was 11.9, the drug sensitivity score (SK-N-AS [5]) was 8.8 and the drug sensitivity score (IMR-32 [6]) was 15.8.

`Cc1c(C(=O)Nc2ccc(N3C[C@@H](C)O[C@@H](C)C3)nc2)cccc1-c1ccc(OC(F)(F)F)cc1` [Sonidegib] showed a drug sensitivity score (IMR-32 [1]) of 0, a drug sensitivity score (SK-N-AS [2]) of 0 and a drug sensitivity score (SK-N-AS [3]) of 1.2. It also gave a drug sensitivity score (IMR-32 [4]) of 0, a drug sensitivity score (SK-N-AS [5]) of 0 and a drug sensitivity score (IMR-32 [6]) of 12.7.

Work on `FC(F)(F)c1ccc(CNc2ccc(Cc3c[nH]c4ncc(Cl)cc34)cn2)cn1` [Pexidartinib] yielded a drug sensitivity score (IMR-32 [1]) of 3.7, a drug sensitivity score (SK-N-AS [2]) of 0.9 and a drug sensitivity score (SK-N-AS [3]) of 1.1. It also gave a drug sensitivity score (IMR-32 [4]) of 5.5, a drug sensitivity score (SK-N-AS [5]) of 0.7 and a drug sensitivity score (IMR-32 [6]) of 4.6.

`COCCNCc1ccc(-c2cc3nccc(Oc4ccc(NC(=O)C5(C(=O)Nc6ccc(F)cc6)CC5)cc4F)c3s2)nc1` [Sitravatinib] gave a drug sensitivity score (IMR-32 [1]) of 2.5, a drug sensitivity score (SK-N-AS [2]) of 1 and a drug sensitivity score (SK-N-AS [3]) of 1. The drug sensitivity score (IMR-32 [4]) was 2.8, the drug sensitivity score (SK-N-AS [5]) was 1.1 and the drug sensitivity score (IMR-32 [6]) was 3.4.

`C=CC(=O)Nc1cc2c(Nc3ccc(F)c(Cl)c3)ncnc2cc1OCCCN1CCOCC1` [Canertinib] showed a drug sensitivity score (IMR-32 [1]) of 9.4, a drug sensitivity score (SK-N-AS [2]) of 9.2 and a drug sensitivity score (SK-N-AS [3]) of 9. The drug sensitivity score (IMR-32 [4]) was 8.7, the drug sensitivity score (SK-N-AS [5]) was 9.6 and the drug sensitivity score (IMR-32 [6]) was 9.7.

With `CCCCCOC(=O)Nc1nc(=O)n([C@@H]2O[C@H](C)[C@@H](O)[C@H]2O)cc1F` [Capecitabine] the drug sensitivity score (IMR-32 [1]) was 0, the drug sensitivity score (SK-N-AS [2]) was 0 and the drug sensitivity score (SK-N-AS [3]) was 0. For the same compound, the drug sensitivity score (IMR-32 [4]) was 0, the drug sensitivity score (SK-N-AS [5]) was 0 and the drug sensitivity score (IMR-32 [6]) was 0.

`COc1cc2nccc(Oc3ccc(NC(=O)Nc4cc(C)on4)c(Cl)c3)c2cc1OC` [Tivozanib] showed a drug sensitivity score (IMR-32 [1]) of 5, a drug sensitivity score (SK-N-AS [2]) of 2.2 and a drug sensitivity score (SK-N-AS [3]) of 2.4. It also gave a drug sensitivity score (IMR-32 [4]) of 8.3, a drug sensitivity score (SK-N-AS [5]) of 1.6 and a drug sensitivity score (IMR-32 [6]) of 9.3.

With `O=C(c1cc(Cc2n[nH]c(=O)c3ccccc23)ccc1F)N1CCN(C(=O)C2CC2)CC1` [Olaparib] the drug sensitivity score (IMR-32 [1]) was 18.3, the drug sensitivity score (SK-N-AS [2]) was 3.3 and the drug sensitivity score (SK-N-AS [3]) was 1.9. The drug sensitivity score (IMR-32 [4]) was 24.5, the drug sensitivity score (SK-N-AS [5]) was 2.4 and the drug sensitivity score (IMR-32 [6]) was 22.2.

With `Cc1ccc(NS(=O)(=O)c2cccc(C#N)c2)c2[nH]cc(C#N)c12` the drug sensitivity score (IMR-32 [1]) was 25.5, the drug sensitivity score (SK-N-AS [2]) was 18.7 and the drug sensitivity score (SK-N-AS [3]) was 19.9. It also gave a drug sensitivity score (IMR-32 [4]) of 23.8, a drug sensitivity score (SK-N-AS [5]) of 19.2 and a drug sensitivity score (IMR-32 [6]) of 27.4.

`CCCC(CCC)C(=O)O` [Valproic acid] showed a drug sensitivity score (IMR-32 [1]) of 0, a drug sensitivity score (SK-N-AS [2]) of 0 and a drug sensitivity score (SK-N-AS [3]) of 0. It also gave a drug sensitivity score (IMR-32 [4]) of 0, a drug sensitivity score (SK-N-AS [5]) of 0 and a drug sensitivity score (IMR-32 [6]) of 0.

Work on `CNC(=O)c1ccccc1Nc1cc(Nc2ccc(N3CCOCC3)cc2OC)ncc1C(F)(F)F` yielded a drug sensitivity score (IMR-32 [1]) of 8.7, a drug sensitivity score (SK-N-AS [2]) of 10.1 and a drug sensitivity score (SK-N-AS [3]) of 11.4. It also gave a drug sensitivity score (IMR-32 [4]) of 6.5, a drug sensitivity score (SK-N-AS [5]) of 11.1 and a drug sensitivity score (IMR-32 [6]) of 14.9.

For `Cc1ncc(Cl)cc1NCc1ccc(C(=O)N[C@@H](CC2CCCC2)C(=O)NC2CC2)s1`, the drug sensitivity score (IMR-32 [1]) was 2.8, the drug sensitivity score (SK-N-AS [2]) was 0.9 and the drug sensitivity score (SK-N-AS [3]) was 0.4. For the same compound, the drug sensitivity score (IMR-32 [4]) was 11.2, the drug sensitivity score (SK-N-AS [5]) was 0.1 and the drug sensitivity score (IMR-32 [6]) was 1.3.

For `COC(=O)c1ccc2c(c1)[nH]c1ncnc(NCCCN3CCCCC3)c12`, the drug sensitivity score (IMR-32 [1]) was 2.6, the drug sensitivity score (SK-N-AS [2]) was 0.1 and the drug sensitivity score (SK-N-AS [3]) was 1.6. For the same compound, the drug sensitivity score (IMR-32 [4]) was 3.7, the drug sensitivity score (SK-N-AS [5]) was 2.2 and the drug sensitivity score (IMR-32 [6]) was 2.8.

`CN1CCN(C2CCN(C(=O)Nc3cc(Oc4ccc(NC(=O)C5(C(=O)Nc6ccc(F)cc6)CC5)c(F)c4)ccn3)CC2)CC1` [Golvatinib] was tested, and the drug sensitivity score (IMR-32 [1]) was 0, the drug sensitivity score (SK-N-AS [2]) was 0 and the drug sensitivity score (SK-N-AS [3]) was 0. For the same compound, the drug sensitivity score (IMR-32 [4]) was 1, the drug sensitivity score (SK-N-AS [5]) was 0 and the drug sensitivity score (IMR-32 [6]) was 0.

`Cc1cc(Nc2cc(N3CCN(C)CC3)nc(Sc3ccc(NC(=O)C4CC4)cc3)n2)n[nH]1` [Tozasertib] gave a drug sensitivity score (IMR-32 [1]) of 31.7, a drug sensitivity score (SK-N-AS [2]) of 12.8 and a drug sensitivity score (SK-N-AS [3]) of 11.1. It also gave a drug sensitivity score (IMR-32 [4]) of 31, a drug sensitivity score (SK-N-AS [5]) of 13.2 and a drug sensitivity score (IMR-32 [6]) of 31.1.

Compound `O=C(CCCCCCC(=O)Nc1ccc([C@H]2O[C@@H](CSc3nc(-c4ccccc4)c(-c4ccccc4)o3)C[C@@H](c3ccc(CO)cc3)O2)cc1)NO` [Tubacin] has a drug sensitivity score (IMR-32 [1]) of 16.5, a drug sensitivity score (SK-N-AS [2]) of 5.1 and a drug sensitivity score (SK-N-AS [3]) of 4.4. The drug sensitivity score (IMR-32 [4]) was 17.9, the drug sensitivity score (SK-N-AS [5]) was 4.6 and the drug sensitivity score (IMR-32 [6]) was 16.7.

`Cc1cc(Nc2cc(N3CCN(C)CC3)nc(/C=C/c3ccccc3)n2)n[nH]1` was tested, and the drug sensitivity score (IMR-32 [1]) was 20.8, the drug sensitivity score (SK-N-AS [2]) was 11.7 and the drug sensitivity score (SK-N-AS [3]) was 11.2. It also gave a drug sensitivity score (IMR-32 [4]) of 19.8, a drug sensitivity score (SK-N-AS [5]) of 11.9 and a drug sensitivity score (IMR-32 [6]) of 19.4.

`Cc1ccc(-n2nc(C(C)(C)C)cc2NC(=O)Nc2ccc(OCCN3CCOCC3)c3ccccc23)cc1` [Doramapimod] was tested, and the drug sensitivity score (IMR-32 [1]) was 8.4, the drug sensitivity score (SK-N-AS [2]) was 2.1 and the drug sensitivity score (SK-N-AS [3]) was 2.4. It also gave a drug sensitivity score (IMR-32 [4]) of 8.1, a drug sensitivity score (SK-N-AS [5]) of 1.8 and a drug sensitivity score (IMR-32 [6]) of 7.6.

Work on `O=C1CN2Cc3c(ccc(Cl)c3Cl)N=C2N1` [Anagrelide] yielded a drug sensitivity score (IMR-32 [1]) of 0, a drug sensitivity score (SK-N-AS [2]) of 0 and a drug sensitivity score (SK-N-AS [3]) of 0. For the same compound, the drug sensitivity score (IMR-32 [4]) was 0, the drug sensitivity score (SK-N-AS [5]) was 1.3 and the drug sensitivity score (IMR-32 [6]) was 0.

In the case of `Cc1cnc(-c2ccccc2C(C)C)nc1NCc1ccc(-n2ccnn2)cc1`, the drug sensitivity score (IMR-32 [1]) was 0, the drug sensitivity score (SK-N-AS [2]) was 0.1 and the drug sensitivity score (SK-N-AS [3]) was 0. The drug sensitivity score (IMR-32 [4]) was 1.8, the drug sensitivity score (SK-N-AS [5]) was 0 and the drug sensitivity score (IMR-32 [6]) was 3.9.

In the case of `CC/C(=C(\c1ccccc1)c1ccc(OCCN(C)C)cc1)c1ccccc1` [Tamoxifen], the drug sensitivity score (IMR-32 [1]) was 7.6, the drug sensitivity score (SK-N-AS [2]) was 3.3 and the drug sensitivity score (SK-N-AS [3]) was 3.8. The drug sensitivity score (IMR-32 [4]) was 8, the drug sensitivity score (SK-N-AS [5]) was 5.1 and the drug sensitivity score (IMR-32 [6]) was 8.

In the case of `CCCS(=O)(=O)Nc1ccc(F)c(C(=O)c2c[nH]c3ncc(-c4ccc(Cl)cc4)cc23)c1F` [Vemurafenib], the drug sensitivity score (IMR-32 [1]) was 0, the drug sensitivity score (SK-N-AS [2]) was 0 and the drug sensitivity score (SK-N-AS [3]) was 0. The drug sensitivity score (IMR-32 [4]) was 0, the drug sensitivity score (SK-N-AS [5]) was 0 and the drug sensitivity score (IMR-32 [6]) was 0.

`CN1C(=O)N[C@H](Cc2c[nH]c3c(Cl)cccc23)C1=O` [Necrostatin 2] showed a drug sensitivity score (IMR-32 [1]) of 0, a drug sensitivity score (SK-N-AS [2]) of 0 and a drug sensitivity score (SK-N-AS [3]) of 0. For the same compound, the drug sensitivity score (IMR-32 [4]) was 0, the drug sensitivity score (SK-N-AS [5]) was 0 and the drug sensitivity score (IMR-32 [6]) was 0.

Compound `CC(=O)Nc1ccc(C(=O)Nc2ccccc2N)cc1` [Tacedinaline] has a drug sensitivity score (IMR-32 [1]) of 0, a drug sensitivity score (SK-N-AS [2]) of 0.1 and a drug sensitivity score (SK-N-AS [3]) of 0. It also gave a drug sensitivity score (IMR-32 [4]) of 0, a drug sensitivity score (SK-N-AS [5]) of 0 and a drug sensitivity score (IMR-32 [6]) of 0.9.

In the case of `Nc1ccccc1NC(=O)c1ccc(CNc2nccc(-c3cccnc3)n2)cc1` [Mocetinostat], the drug sensitivity score (IMR-32 [1]) was 21.8, the drug sensitivity score (SK-N-AS [2]) was 12.1 and the drug sensitivity score (SK-N-AS [3]) was 12.2. The drug sensitivity score (IMR-32 [4]) was 18.9, the drug sensitivity score (SK-N-AS [5]) was 12 and the drug sensitivity score (IMR-32 [6]) was 20.
